Assay results: PubChem BioAssay AID493208 (National Center for Advancing Translational Sciences (NCATS), 2011)
About 340 (0.77%) of roughly 44,000 compounds were called active. Roughly 5% stayed inconclusive and do not appear here. Calls follow the shape of the dose curve; as a rule, active = well fitted inhibition curve with a large enough effect; inconclusive = small, poorly fitted or top-dose-only effect; inactive = flat fitted curve, though single readings scatter. Some of the results follow.

Assay: Acumen qHTS Assay for Inhibitors of the mTORC1 Signaling Pathway in MEF (Tsc2-/-, p53-/-) Cells: Sytravon;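 also: plate controls were DMSO for no effect and rapamycin for full effect; nearly all actives have a fitted effect of over 50% in size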
Conditions: phospho-rpS6 immunofluorescence/PI, 24 h; series mostly up to 38.3 µM; activity change, negative = inhibition: at the top concentration
How it was run: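 Tsc2-/-, p53-/- MEFs (empty-vector stable line) in DMEM + 10% FBS were treated with compounds 24 h at 37 degree Celsius, fixed, and immunostained for phospho-rpS6 (Alexa-488) with propidium iodide counterstain. Laser-scanning cytometry gave % positive cells, normalized against 7.5 nM rapamycin and DMSO.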

Activity change, negative = inhibition, inactive:
CC(CC(=O)Nc1ccc(Br)cc1F)S(=O)(=O)c1ccc2c(c1)NC(=O)CO2 (stereo not given) -7.27%
CSc1ncc(Cl)c(C(=O)N(Cc2ccc(N(C)C)cc2)Cc2ccco2)n1 -4.78%
Cc1c(Cl)cccc1NC(=O)C(C)n1nnc2sc3c(c2c1=O)CCCC3 (stereo not given) 1.73%
Cc1c(C)n(C)c2ccc(C(=O)N3CCN(c4ccccc4)CC3)cc12 -4.62%
CCCCOc1ccc(CNC(=O)CCCN2C(=O)CSc3c2c(C)nn3-c2ccccc2)cc1 2.67%
CCOC(=O)c1ccccc1NC(=O)c1sc2nc3n(c(=O)c2c1C)CCCC3 -5.13%
CCc1ccc(CNC(=O)CN2C(=O)c3cccnc3Oc3ccc(C)cc32)cc1 -13%
Cc1ccc2c(=O)cc(C(=O)Nc3ccc(S(=O)(=O)N4CCCCCC4)cc3)oc2c1C 2.72%
Cc1cc(C)cc(NC(=O)Cn2c(=O)c3ccccc3n3nncc23)c1 -0.894%
Cc1ccc(CNC(=O)Cn2cc(C(=O)c3ccc(F)cc3)c(=O)c3ccc(C)nc32)cc1 7.09%
CCOC(=O)C1CCN(C(=O)C2CCN(C3=NS(=O)(=O)C(c4ccc(C)c(C)c4)=C3C)CC2)CC1 -8.53%
Cc1cccc(C2CC(=O)Oc3c2c(=O)n(C)c2ccccc32)c1 (stereo not given) -13.7%
CCc1ccc(Cc2cnc(NC(=O)c3ccc4c(c3)CC(c3ccccc3)OC4=O)s2)cc1 (stereo not given) -0.364%
O=C(Cn1c(=O)n(-c2ccc(F)c(Cl)c2)c(=O)c2sc3ccccc3c21)NC1CCCC1 -7.75%
Cc1ccc(-n2c(=O)c3oc4ccccc4c3n(Cc3ccccc3F)c2=O)cc1C -4.22%
CC(C)CCNC(=O)C1CCC(Cn2c(=O)c3sccc3n(CC(=O)NC(C)C)c2=O)CC1 (stereo not given) -3.24%
CCC(C)NC(=O)C(=O)Nc1c2c(nn1-c1ccccc1)CS(=O)(=O)C2 (stereo not given) -0.661%
COc1ccc(CNC(=O)c2cc3c(s2)-c2ccccc2OC3)cc1 -6.84%
CCOC(=O)c1c(NC(C)=O)c2c3c(sc2n1Cc1nc(-c2ccccc2C)oc1C)CCCC3 1.93%
O=C(Nc1nc2ccc(F)cc2s1)c1nc(S(=O)(=O)Cc2ccccc2)ncc1Cl -8.5%
COc1ccc(NC(=O)CSc2nc3c(oc4ccccc43)c(=O)n2-c2ccc(C)c(C)c2)cc1 1.38%
CC1CN(C(=O)CCC(=O)NCc2ccc(F)cc2)c2cc(Cl)ccc2O1 (stereo not given) 0.0685%
O=C(c1ccc2c(c1)N(Cc1ccc(Cl)cc1)C(=O)c1ccccc1S2(=O)=O)N1CCCCC1 0.838%
O=C(CN1C(=O)CCSc2ccccc21)Nc1ccccc1F -25.8%
CCOc1ccc(CCNC(=O)C2COc3ccccc3C2)cc1OCC (stereo not given) 1.62%
Cc1nc2nc(SCC(=O)NCCc3ccc(Cl)cc3)nn2c(C)c1Cc1ccccc1 -7.02%
COC(=O)c1sc2cccc(F)c2c1S(=O)(=O)N1CCN(c2ccc(F)cc2)CC1 -10.7%
CCCSc1ncc(Cl)c(C(=O)Nc2nc3ccc(OCC)cc3s2)n1 7.1%
Cc1ccc(CNC(=O)c2ccc3c(=O)n(-c4ccccc4)c(=O)[nH]c3c2)cc1 -0.207%
COc1ccc2c(c1)CCc1c(C(=O)Nc3c(C)nn(Cc4ccc(Cl)c(Cl)c4)c3C)noc1-2 0.696%
Cc1ccc(S(=O)(=O)c2nc(-c3cccc(C)c3)oc2N2CCN(c3ccccc3)CC2)cc1 -1.21%
COc1cc(OC)c(NC(=O)NCc2ccc3c(c2)CCN3C(=O)c2ccccc2)cc1Cl -1.16%
CCc1ccccc1NC(=O)CSc1nc(-c2ccccc2OC)nc2c1Cc1c(CO)cnc(C)c1O2 -6.27%
Cc1ccc2c(c1)cc1c(=O)n(CC(=O)NC3CCCCC3)nc(C)n12 -2.53%
CC(=O)c1cc(C(=O)Nc2cc(C)cc(C)c2)c2ccccn12 -0.412%
Cc1cccn2c(=O)c3cc(C(=O)NCc4ccccc4)c(=N)n(CCOCCO)c3nc12 0.628%
CCOC(=O)CC1c2cc(OCC)c(OCC)cc2CCN1C(=O)Nc1cccc(Cl)c1 (stereo not given) -7.6%
CCC(=O)Nc1ccc(-c2nnc3c4ccccc4c(C)nn23)cc1 0.0732%
O=C(NCc1ccccc1)c1ccc2c(c1)CCN2S(=O)(=O)c1ccccc1 -15.7%
CCCc1ccc(S(=O)(=O)N2CCC(Oc3ccc(-n4cnnn4)cc3)CC2)cc1 -3.3%
CCOC(=O)c1[nH]c(C)c(CCC(=O)NCc2ccccc2Cl)c1C 0%
CNC(=O)c1ccc(Nc2nnc(-c3ccc(C)c(S(=O)(=O)N(C)C)c3)c3ccccc23)cc1 12.1%
Cc1ccc(NC(=O)CSc2nc(=O)n(CCCN(C)C)c3c2CCC3)cc1F -2.74%
CCCCC(CC)CNC(=O)C1CCC(CNS(=O)(=O)c2cccc3nsnc23)CC1 (stereo not given) -18.6%
Cc1cc(C)cc(OCCCn2c(CCNC(=O)C3CCCCC3)nc3ccccc32)c1 0.0309%
COc1ccc(CCNC(=O)CCCn2c(=O)c3ccccc3n(Cc3c(C)cc(C)cc3C)c2=O)cc1OC -3.54%
CCC(=O)N1c2ccc(S(=O)(=O)N3CCC(C)CC3)cc2CC1C (stereo not given) -18%
O=C(CC1C(=O)OCCN1Cc1ccccc1)Nc1ccc(F)cc1 (stereo not given) -1.57%
Cc1ccc(C)c(NC(=O)Cn2cc(C(=O)c3ccc(Cl)cc3)c(=O)c3ccc(C)nc32)c1 3.33%
N#Cc1ccc(CSc2nc3c(c(=O)[nH]2)CCC3)cc1 1.27%
COc1cc(NC(=O)CSc2nc(-c3ccc(C)cc3)nc3c2Cc2ccccc2O3)cc(OC)c1 -9.37%
Cc1cccc(C)c1-n1ncc(C(=O)N2CCN(c3ccccn3)CC2)c1C1CCN(C(=O)OC(C)(C)C)CC1 5.97%
Cc1cccc(-c2nc3c4ccccc4nc(NCc4ccc(Cl)cc4)n3n2)c1 -1.56%
CC(=O)c1ccc(NC(=O)CSc2cn(CC(=O)N3CCCCCC3)c3ccccc23)cc1 -14%
COc1ccc(NC(=O)CSc2oc(-c3ccco3)nc2S(=O)(=O)c2ccc(Br)cc2)c(OC)c1 -0.108%
CCc1ccc2oc(-c3cc(NC(=O)C(C)C)cc(C)c3O)nc2c1 -0.253%
CC(C)Cn1c(=O)c2sccc2n2c(CCCC(=O)NCc3ccccc3Cl)nnc12 -1.3%
COc1cccc(CNC(=O)C2CCN(S(=O)(=O)c3cn(C)cn3)CC2)c1 9.83%
CC(=O)N1c2ccc(S(=O)(=O)N3CCCCCC3)cc2CC1C(=O)NCc1ccc(Cl)cc1 (stereo not given) 0%
CCCOc1ccc(-c2nonc2NC(=O)c2oc3ccc(C)cc3c2C)cc1OCCC 4.82%
CCOC(=O)N1CCC(NC(=O)c2cnn(-c3cccc(Cl)c3C)c2C2CCN(C(=O)OC(C)(C)C)CC2)CC1 5.56%
Oc1ccc(Cl)cc1C1=Nc2ccccc2N=C(c2cccc(Br)c2)C1 -12.4%
CN1CCN(c2nc3c(S(=O)(=O)c4ccc(Br)cc4)nnn3c3ccsc23)CC1 -1.38%
CCc1sc(Nc2cccc(Cl)c2C)nc1-c1cc2cccc(OC)c2oc1=O -3.07%
COc1cccc(CN2CCc3nc(N4CCN(c5ncccn5)CC4)ncc3C2)c1 0%
O=C(CC1C(=O)OCCN1Cc1ccccc1)Nc1cccc(C(F)(F)F)c1 (stereo not given) 0.287%
COc1ccc(OC)c(NC(=O)c2cc(CN3CCCC3)on2)c1 -11.7%
Cc1cccc(Cn2cccc2CNS(=O)(=O)c2ccc(Br)cc2)c1 0%
COc1ccc(-c2cc3ccc(O)c(CN4CCC(C)CC4)c3oc2=O)cc1OC 1.08%
COc1cc(-c2nnc(SCCOc3cc(C)cc(C)c3)o2)cc(OC)c1OC -11.5%
COc1ccc(S(=O)(=O)Nc2cc(S(=O)(=O)c3ccccc3)c(O)c(C)c2C)cc1 3.38%
Cc1ccccc1CN1C(=O)c2ccccc2S(=O)(=O)c2ccc(C(=O)OCC3CCCO3)cc21 (stereo not given) -6.27%
Cc1ccc(C(C)C)c(OC(C)C(=O)NCC2(N(C)C)CCCCC2)c1 (stereo not given) -12.4%
Cc1cc(OC(C)C(=O)Nc2sc3c(c2C(N)=O)CCCC3)ccc1Cl (stereo not given) 1.22%
CC(NC(=O)CN1C(=O)c2cccnc2Oc2ccc(Cl)cc21)c1ccccc1 (stereo not given) -0.182%
CCOc1ccccc1CNc1nc2nc(C)cc(C)n2n1 9.22%
O=C(NCCCN1CCN(c2ccccc2)CC1)c1ccc2nc(Cc3ccccc3)oc2c1 0%
CC(C)NC(=O)CCC(=O)N1Cc2ccccc2Oc2ncccc21 -3.74%
CCC1CCCCN1C(=O)CSc1nc2c([nH]c3ccccc32)c(=O)n1-c1ccc(OC)cc1 (stereo not given) 2.93%
Cn1ccc2cc(S(=O)(=O)N3CCN(C(=O)Nc4ccc(F)cc4F)CC3)ccc21 -2.39%
CC1Cc2ccccc2N1S(=O)(=O)c1nnc(NC(=O)c2ccccc2)s1 (stereo not given) 13.7%
COC(=O)c1nnn(CC(=O)NC(=O)Nc2c(C)cccc2C)c1C(=O)OC 7.9%
Cc1ccccc1C(=O)n1nc(-c2cccnc2)nc1NCc1ccccc1 -4.69%
CCCCN(CC)CCCNC(=O)c1nn(C)c2c1CSc1ccccc1-2 1.09%
COc1ccc(OC)c(CCNC(=O)Cn2ncc3c([nH]c4ccccc43)c2=O)c1 -7.05%
NS(=O)(=O)c1ccc(NC(=O)C2Cc3ccccc3N2C(=O)c2ccccc2)cc1 (stereo not given) 4.02%
CCn1cc2nc(SCC(=O)Nc3ccccc3C(F)(F)F)n(Cc3ccc(C)cc3)c(=O)c2n1 -8.64%
COCCCNC(=O)CCC(=O)NNc1nc2ccccc2c2nc(C)nn12 -3.25%
COc1ccc(N2CC(NC(=O)C(c3ccccc3)c3ccccc3)CC2=O)cc1OC (stereo not given) 3.23%
CC(C)Oc1ccc(-c2nc3c(C#N)c[nH]n3c2NC2CCCCC2)cc1 0%
CCOC(=O)c1c(C)oc2ncnc(Nc3ccc(OC)c(OC)c3)c12 0.132%
COc1ccc(Cn2c(=O)c3cccnc3n(Cc3cccc(F)c3)c2=O)cc1 -21.1%
COc1ccccc1CNC(=O)c1ccc2nc(CCc3ccccc3)oc2c1 -1.05%
COC(=O)c1ccc(C(=O)OC)c(NC(=O)c2ccc(-c3ccccc3)s2)c1 -16.6%
COc1ccccc1NC(=O)c1c(C)cc(C)nc1SCC(=O)c1ccc(Cl)cc1 -0.986%
